# Data: the supplement of paper PMC11417369
# The other results are listed elsewhere or left out.
# System: PfHDP1 homeodomain (GST-tagged)
# Test: gcPBM binding intensity (ln(normalized median fluorescence intensity)); higher = stronger DNA binding
# Summary of the method: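 An Agilent 4 × 180k array carrying primer-extended double-stranded 36-bp intergenic genomic probes and negative controls received GST-tagged P. falciparum DNA-binding domains expressed in E. coli, about 25 μg on average, for 1 h. The binding buffer contained 1× PBS, 1% milk, 0.2 mg/ml BSA, 0.5% salmon testes DNA and 0.03% Triton X-100. Binding intensity is the top Masliner-normalised natural-log median intensity across replicate spots of either probe orientation, read after Alexa488 anti-GST antibody staining and a 488 nm scan.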
row,Sequence,gcPBM binding intensity (ln)
1,TTAGTTATTAAAAAAAGTACATAAGTAGATATCATC [XGTACX_site8712],6.18
2,CCATTTTTTTTATACGCACACGTCATACTTTTAAAA [CACACA_site4988],8.04
3,AAAATTTAATATAATGCACACATAAAAAAAAAAAAA [CACACA_site7923],10.4
4,CGTAATAAAAACAAATGTACATGACCTGGACAGGTT [XGTACX_site6560],6.4
5,ATATAAAACTATAATACACACATAAAATATATTATA [CACACA_site6588],6.74
6,GTATATTTTTAAAGGTGTACTTTTTTTTTTTTTTTT [XGTACX_site721],6.8
7,ATAAATATATATATAGTGCATATAAGCCACCTTCAA [GTGCAC_site9628],8.73
8,TATATAATACAACATGCACACATATATATGTGAATC [CACACA_site8794],9.26
9,TATATTTATTTATTCTGTACTGAAGACAGTTATGTA [XGTACX_site8857],6.45
10,ATTTAAAAAAAAAAAAAAAAAAAAAAAAAAAGAAAA [CACACA_negctrl_site722],5.67
11,TAATCCTTTCAATATTGTACACATTTGTGTTAAGAA [XGTACX_site1275],6.79
12,TATATTATGACCACCACACACCTATACACATAACAT [CACACA_site7199],7.01
13,TTTAATATTAGCATATGTACACAAATCACACGGAAA [XGTACX_site2473],7.34
14,ATATATTTTATATAATGTACATAAACCGCACACATA [XGTACX_site6061],6.71
15,TTTCAAATTTAATACACACACAAGTATATATCTATC [CACACA_site7782],6.54
16,ATTTATATATAATATACACACATATAATACCCATAT [CACACA_site4548],6.73
17,AACGCACGAGGACACACACACATATTTATATTTATA [CACACA_site6608],7.08
18,TTTTTTAACTGTATGATGTTATATTAAAAATAAAAA [GTGCAC_negctrl_site463],6.21
19,TCAAATATATAGAATACACACATGGATATAAGAAAT [CACACA_site4065],6.93
20,GGACAAGAATAGTGCACATGCAATGTTATTTTTTAT [TGCATGCA_site450],9.96
21,CGTTTTAATAAGATCACACATATAATATATATATAT [CACACA_site5159],8.57
22,ATTATAACCATATACACACCCATATAAATAAATATA [CACACA_site6926],6.85
23,ATATTAAATGTTATCACACACATAATTACTTCCATA [CACACA_site7160],6.7

row,Sequence,gcPBM binding intensity (ln)
1,TATTAAATGGCCATTACATGCAATTATTTCTAATAA [TGCATGCA_site275],6.33
2,ATAATATAAATACAAACACACAATTGCGTCCACATT [CACACA_site5039],6.59
3,TCATACGAAATATAAACACACATACAATAAATAAAT [CACACA_site5156],6.72
4,ATTTAATTTGTTCTTACACACACATATATATATATT [CACACA_site8310],7.48
5,AACAAATTGAAACAATAATTGGAAAAAAAAAAAAAA [CACACA_negctrl_site1145],6.04
6,AACAAATACGGACACACACACACACTAGAAAAAAAA [CACACA_site4442],6.7
7,ATAAAATAAAAGGAATGTACTTTTTTTATTGTAATT [XGTACX_site4372],6.09
8,TAAAAAAAAACAGAAACACACATTATTCATATAGAT [CACACA_site7052],6.37
9,GTTATAAATTTTTTTTTTTTTTTTTTTTTTTTTTTT [CACACA_negctrl_site848],7.2
10,AAAAGCACCGTTCGTTGTACACTGAAACACTTTTGT [XGTACX_site199],6.52
11,AAGAAAAAAACAAAAAAAAAAAAAAAAATTCTTATT [TGCATGCA_negctrl_site504],5.73
12,CTATAATATTAGTGCACACACAAAAATGTACTAAAC [CACACA_site6442],10.6
13,ATTTTTTTCCACTAGTGTACAAATTTTACATTGTGT [XGTACX_site5023],7.57
14,ACTAATGTAAAAGTTTGTACATATATTGAGAATTAT [XGTACX_site7439],6.4
15,TTTTCAATTTTTTATGAACACACAAAAAAAAAAAAA [CACACA_site8808],6.49
16,TATTGATAATTTTATATATACATACATAAATAAATA [CACACA_negctrl_site1687],5.98
17,TCGCAAATAAATTAATGTACACATATATATATATAT [XGTACX_site5145],9.33
18,ATAAACTGAGTGGTTACACACAAAACCAATAATTTT [CACACA_site3478],6.14
19,AAATGTATATATGTATGTACATATATATATATATAT [XGTACX_site5778],9.27
20,AGTTTCTATTTAGTGTGTACTTAAGAAAAATATCTC [XGTACX_site82],6.3
21,ATATATATATATATATGTACTCATATTTTATTATTT [XGTACX_site898],9.25
22,ACATAGATGCATATCACACATAATAATATTGTCGTA [CACACA_site4819],6.56
23,TTATAAAATAAACTTACACACATGAAATATTATATT [CACACA_site1945],6.25

row,Sequence,gcPBM binding intensity (ln)
1,TAAAGCGACATTTGGAAAATATATATCCTAGCATTT [CACACA_negctrl_site327],6.08
2,AAAATACACAGACACACACACATATAAATAAATATT [CACACA_site7871],6.98
3,ATTCGTTATAAAATATGTACATAAATATATATATAT [XGTACX_site2819],8.55
4,TATTCGTGCAATAGTAGTACACTTAAAAATTATTCA [XGTACX_site269],9.88
5,AATAAGTTATTATTTTGTACACATAAATAATACGTT [XGTACX_site814],6.2
6,GCACTAAAAAAATAAACACACAGATTTATATAATAT [CACACA_site1381],6.5
7,ATATATGCATATATTTGTACACATTTTTTTACATAA [XGTACX_site4624],7.32
8,AAAAAAACGTAAAAATGTACTTTTTGTATATAACCT [XGTACX_site7950],6.74
9,AAGGAACTATAATATACACACATAAGTGTACTTATA [CACACA_site7816],6.21
10,AGGAAAATTATGAATGGTACAGAATATATTAGGAGA [XGTACX_site6282],7.46
11,TATTTGTGGATTTTTACACACATTAATATATATATA [CACACA_site3375],8.14
12,AAACAAAATAAATATGAACACACACCGTTATGCCTT [CACACA_site8347],6.36
13,AAGACAAATTTTACATGTACAAATATATTACATATA [XGTACX_site7060],6.83
14,AAGAAAAAAAGCAACACACGTACCAACACAATTATG [CACACA_site3133],6.88
15,TATTCAAATTTCCACATACACACCTTGTAGATATAT [CACACA_site281],6.72
16,ATTTCTTTTGTTATAGTGCATAATATTTATGTACGT,8.44
17,AAAGAAAGAAAGAAAAGTACTTAAACTTTTAAAAAT [XGTACX_site8531],6.03
18,AATAATAATAAAAATAAACACACATATATATGTATA [CACACA_site8928],6.38
19,TTAAATAAATAAATAACACACATATAAAAATAACGC [CACACA_site3266],7
20,TAACTATCATGTATTACACACAATATTTATTATATA [CACACA_site2701],6.76
21,ATATTAATATATAGAAGTACTCACATGTTAATATAA [XGTACX_site7323],6.83
22,TAATATTTCGCACTGTGTACTGAAATATTTATATCG [XGTACX_site516],6.96
23,GTAGACTGAAACCACACACACATATATATATATATT [CACACA_site605],6.93

row,Sequence,gcPBM binding intensity (ln)
1,ATAATAAGACGATAAGGTACACAAAATGTTAATATA [XGTACX_site6984],6.66
2,ATTTATATGGTTTGCACACATAACAACTATGGTTAT [CACACA_site3632],10.2
3,TTTACACGTACGTGTACACACAAAAATATGTTTTTA [CACACA_site995],6.8
4,GAAAGAAATAAAGGTGGTACATAAATAAAAACTAAG [XGTACX_site4826],6.97
5,TGTAGTCTGGAGAAAAGTACATAGTATCTGGTAGCT [XGTACX_site2031],6.17
6,AAATTCCACGGACACACACACATATAAATAAATAAA [CACACA_site4811],6.98
7,AACATAAAAAAAATATGTACATATATAATATATATA [XGTACX_site3764],7.24
8,TAAAATAAAAAGTTTACACACATATATAATTTTAAT [CACACA_site662],6.24
9,GAATTATATAATTAAAGTACATTGTTTATATAATCA [XGTACX_site7246],6.24
10,AACCATTTTAAATATGCACACAGATGCACTAACACA [CACACA_site8565],10.5
11,ATATATATACTGTGTACACAAATATATATTATATAT [CACACA_site6104],7.14
12,TAATTTTTCTTTTATTAACACACATATAAATAAATA [CACACA_site8935],6.53
13,AAAAATAAAAAAAGCACACACATATAAATAAATATA [CACACA_site6968],6.85
14,TATATGACAAGATAAAGTACAAATTTGTATATATAT [XGTACX_site3027],7.11
15,ATATATTTATATATTACACACAATATTGTAGACATA [CACACA_site4669],7
16,CCCAATAATTAAACAACACACATATTTATAGGTAAT [CACACA_site7445],6.9
17,TTTTTTAAAGATTACTCAAAAAAATAAAAAAATAAA [GTGCAC_negctrl_site222],6.27
18,TCGTGAGAAAATATTACACACATTTACTATAGTATC [CACACA_site3444],6.34
19,TGAGTTCAACAAAGACGTACAAAACCAAAAATATAA [XGTACX_site8931],6.75
20,TTTTTTTTTTTTTTTTGATACATTAACCTACAATGG [GTGCAC_negctrl_site625],6.58
